{
  "source": "the RNAGym collection of RNA variant scans (doi:10.7554/elife.90254)",
  "parents": {"B1": {"name": "OR4K15 (parent)", "chain": "GUUAACGGUCAUAGGCCAUGGAAACUAGGAGCACCAUUUCGCUGCCAGUGAAGAAAUGAACAAAGAAAAUCUGGGCCAGGCAGGCAUCAAAAGAAAUAGUCUUGCGCUCAACCAGAAAGUCUGUAAUCAUUUUAAGGGUA"}},
  "note": "Read counts are not given, so values of variants with three or more changes are uncertain.",
  "data": [
    {"variants_of": "B1", "experiment": "self-cleavage, relative activity (ratio to wild type); higher = more cleavage; in vitro, sequencing; the parent is a self-cleaving ribozyme", "values": [
      {"variant": "U2G A55G A95G", "self-cleavage": 1.48},
      {"variant": "A5G A11G U38A", "self-cleavage": 0.58},
      {"variant": "A5G A11G U103C U122C", "self-cleavage": 0.59},
      {"variant": "U2C C61U A89G U108C", "self-cleavage": 0.11},
      {"variant": "U2C A98G U100C", "self-cleavage": 1.53},
      {"variant": "A4G A5G A18G A56G A64G A98G A114G", "self-cleavage": 0.12},
      {"variant": "U2C C32A A82G A116G", "self-cleavage": 0.54},
      {"variant": "U3A A86G A92G U131C", "self-cleavage": 1.35},
      {"variant": "U2C C25G G31A A62U A92G U103C", "self-cleavage": 0.45},
      {"variant": "U3A A18U A22U A82C A116G", "self-cleavage": 0.03},
      {"variant": "A5G A18G A55C U100A A111G A116G U127C A135G", "self-cleavage": 0},
      {"variant": "U2C U70C C113U", "self-cleavage": 0.01},
      {"variant": "A5C A30G A63U A66G", "self-cleavage": 0.87},
      {"variant": "A4G A67C A94G U102C", "self-cleavage": 1.43},
      {"variant": "U2C U72A C113A", "self-cleavage": 0.04},
      {"variant": "U3A A11G A63G A135C", "self-cleavage": 0.41},
      {"variant": "U2C U102C U131C A135G", "self-cleavage": 0.84},
      {"variant": "A5G A18G A91G", "self-cleavage": 1.1},
      {"variant": "U3C U37C U49C", "self-cleavage": 0.67},
      {"variant": "A4G U9C A11G U57C A59G A92C", "self-cleavage": 1.13},
      {"variant": "U2C U37C U38A U57A G79A", "self-cleavage": 0.29},
      {"variant": "U3C A90G U132C", "self-cleavage": 0.63},
      {"variant": "A4G A92G U108C A135G", "self-cleavage": 0.04},
      {"variant": "A4G U108C A117G", "self-cleavage": 0.02},
      {"variant": "U3C U12C U43C U57C A82G G83C", "self-cleavage": 0.15},
      {"variant": "U3A A59C A91U U133C", "self-cleavage": 1.2},
      {"variant": "U2C A96G U122C", "self-cleavage": 1.68},
      {"variant": "U2C U19A A36G C40U A60G", "self-cleavage": 0.75},
      {"variant": "U3A A27G G93U", "self-cleavage": 0.83},
      {"variant": "A4G A52G A96G U131C", "self-cleavage": 0.94},
      {"variant": "U2C U26C A60G A116G", "self-cleavage": 0.41},
      {"variant": "U2C U49C A60G", "self-cleavage": 0.66},
      {"variant": "A4G A23G A78G C109U A117G", "self-cleavage": 0.23},
      {"variant": "A4G U49C U70C U130C", "self-cleavage": 0.33},
      {"variant": "U3C A23G A111G", "self-cleavage": 0.11},
      {"variant": "U3C A5G A11G", "self-cleavage": 0.72},
      {"variant": "U3C A90G U133C", "self-cleavage": 1.63},
      {"variant": "U3C A27U A54G A66C A116G", "self-cleavage": 0.41},
      {"variant": "A4G G8A A82G", "self-cleavage": 0.77},
      {"variant": "U2C U9C A13G", "self-cleavage": 0.92},
      {"variant": "A4G A52G U122A", "self-cleavage": 0.39},
      {"variant": "A4G A5G U37C U57A", "self-cleavage": 0.51},
      {"variant": "A4G A27U U72A A111G", "self-cleavage": 0},
      {"variant": "A4G A11U A18G A111G A114G", "self-cleavage": 0.03},
      {"variant": "A4G A24U U37C A63G", "self-cleavage": 1.46},
      {"variant": "U3C C45U U120A", "self-cleavage": 2.69},
      {"variant": "U3G A62U A118G", "self-cleavage": 1.32},
      {"variant": "A4G G8C A60G A63G A86G", "self-cleavage": 0.65},
      {"variant": "U3A U127A A134U", "self-cleavage": 1.67},
      {"variant": "U3C A52G A63G", "self-cleavage": 0.89},
      {"variant": "A4G A51G A59G G83A", "self-cleavage": 1.55},
      {"variant": "U2C G7A A62G A63G G136U A140U", "self-cleavage": 1.44},
      {"variant": "U2C U19C U139A", "self-cleavage": 1.46},
      {"variant": "U2G G20A A96U", "self-cleavage": 1.11},
      {"variant": "U3A A47G A59G U70C", "self-cleavage": 0.23},
      {"variant": "A5G A13U U39C C42A", "self-cleavage": 0.57},
      {"variant": "A5C G31A U70C", "self-cleavage": 1},
      {"variant": "U2G A78G A116G", "self-cleavage": 0.52},
      {"variant": "U3C A22G A54G A60G U70C A118G", "self-cleavage": 0.17},
      {"variant": "A4G A27G A51G A55G A62G A116G", "self-cleavage": 0.41},
      {"variant": "U2C U9C U39C U131A", "self-cleavage": 0.68},
      {"variant": "U2C U87A A92U", "self-cleavage": 1.1},
      {"variant": "U3C U72A U87C", "self-cleavage": 0.68},
      {"variant": "A4G U103C A111G U124C", "self-cleavage": 0.02},
      {"variant": "U3C A22G U39A", "self-cleavage": 1.37},
      {"variant": "U3C G8A A59G A63G A69U U103A", "self-cleavage": 1.06},
      {"variant": "U2C U43C A56G A116U", "self-cleavage": 0.18},
      {"variant": "U3C C25U A59G", "self-cleavage": 1.07},
      {"variant": "U3C A22G A54G A89G", "self-cleavage": 0.35},
      {"variant": "U2C G14U A51G A91G A110U U120C C121U A125G", "self-cleavage": 0.32},
      {"variant": "U3C A4G U9C A66G", "self-cleavage": 1.33},
      {"variant": "U3C A60G A63G U120C U139C", "self-cleavage": 0.47},
      {"variant": "A4G A5G A55G", "self-cleavage": 0.68},
      {"variant": "A4G A69G A96G", "self-cleavage": 1.21},
      {"variant": "A5C U39C A89G A91G A129U", "self-cleavage": 0.66},
      {"variant": "U3C G7A C71U A116G A126G", "self-cleavage": 0.02},
      {"variant": "U3C A36U A63G", "self-cleavage": 1.24},
      {"variant": "A4G A59U A78G", "self-cleavage": 0.27},
      {"variant": "U2C U39C A52G", "self-cleavage": 0.55},
      {"variant": "U3C A27G U131C", "self-cleavage": 0.92},
      {"variant": "A4G A36G A62C", "self-cleavage": 0.7},
      {"variant": "U3A A96G U102C", "self-cleavage": 1.42},
      {"variant": "A4G A23G C46U A51G A116U", "self-cleavage": 0.36}
    ]}
  ]
}
